42 molecules from ChEMBL document CHEMBL4888484, “Replenishing the malaria drug discovery pipeline: Screening and hit evaluation of the MMV Hit Generation Library 1 (HGL1) against asexual blood stage Plasmodium falciparum ,using a nano luciferase reporter read-out” (2022) can be followed below.

About 540 (0.36%) of roughly 150,000 compounds showed an effect of 50% or more. The list shows a part of the results.

This test deals with Plasmodium falciparum. Put plainly: Primary screen in NF54 nanoGlo assay, in single point, at 2uM, 72h; a lower Z score goes with more inhibition. Format: functional, Erythrocyte. As to conditions: timepoint 72 hour.
Regarding `Fc1ccc(C2(CNCc3ncc[nH]3)CC2)c(Cl)c1`, the % Inhibition (in general, the drop in the measured response relative to a control, in per cent) is 2% and the Z score is recorded as -0.26.

For the molecule `O=C(c1c(O)cccc1OC(F)(F)F)N1CCO[C@H]2CCC[C@H]21`, the “% Inhibition” value came to 0% and the Z score is given as -0.04.

On to `CCC1CN(CC2CCCN(S(C)(=O)=O)C2)CCO1` (centres undefined), for which the “% Inhibition” value is given as -8% and the Z score stood at 0.97.

Consider `CC(=O)Nc1nonc1NC(=O)c1ccc(C)c(NC(=O)[C@@H]2CCCO2)c1`, for which the “% Inhibition” value is -5% and the Z score came out at 0.64.

With `CCCCN(CCNc1ncnc2onc(C)c12)Cc1ccco1`, the “% Inhibition” value amounted to 0% and the Z score was 0.01.

As for `O=C(NCCN1C(=O)CCCC1=O)c1cc(F)c(F)c(F)c1`, the “% Inhibition” value is given as -4% and the Z score stood at 0.82.

As for `CCCN(C)c1nccn2c(=O)n(CC(=O)Nc3ccc(OC)c(Cl)c3)nc12`, the “% Inhibition” value is listed as -6% and the Z score came to 0.81.

Take `CC1=NN(c2cnn(C)c2)C(=O)[C@@H](C)C1`: the “% Inhibition” value is on record as -1% and the Z score came to 0.28.

In the case of `Cc1ccc(C)c(S(=O)(=O)NC[C@](C)(O)C(=O)OC(C)(C)C)c1`, the “% Inhibition” value is reported as -4% and the Z score is given as 0.67.

On to `CO[C@H]1C[C@@H](O)C12CCN(Cc1[nH]cc(C)c(=O)c1C)CC2`, for which the “% Inhibition” value was -4% and the Z score was found to be 0.81.

As for `Cc1ccc(S(=O)(=O)N(c2ccccc2)C2CCN(Cc3ccccc3F)CC2)cc1`, the “% Inhibition” value is given as -4% and the Z score was 0.34.

As to `CCN1CCN(c2c(CN(C(=O)NC(C)(C)C)C3CC3)c(C)nn2-c2cccc(F)c2)CC1`, the “% Inhibition” value is 5% and the Z score is -0.65.

For `CC(C)[C@H]1C(=O)NCCN1Cc1ccc(N(C)C)nc1`, the “% Inhibition” value was -8% and the Z score turned out to be 1.63.

Turning to `CC(=O)N1CCCC1C1CCCN1C(C)c1ccc(F)cc1F` (centres undefined), the “% Inhibition” value is given as -13% and the Z score is listed as 2.1.

`CCOc1ccc2c(c1)c(=O)c1cccnc1n2CC(=O)Nc1ccccc1Cl`: the “% Inhibition” value is listed as -22% and the Z score was determined as 3.79.

As to `Cc1cc(CN2C(=O)N[C@@]3(CCCCc4ccccc43)C2=O)no1`, the “% Inhibition” value worked out at 33% and the Z score is given as -0.54.

With `C#CCOC[C@@H](O)CN(Cc1c(-c2ccccc2)nn(C)c1Oc1ccc(C)cc1)C1CC1`, the “% Inhibition” value was 10% and the Z score is reported as -1.

Consider `N[C@@H](CCOc1ccccc1)c1ccc(F)cc1`, for which the “% Inhibition” value was -9% and the Z score was determined as 1.1.

Turning to `CCC1(CNC(=O)N[C@@H](C)c2nc[nH]n2)CCN(Cc2ccccc2)CC1`, the “% Inhibition” value is reported as -6% and the Z score amounted to 1.07.

On to `CN(Cc1ccccc1N1CCOCC1)c1ccccc1C#N`, for which the “% Inhibition” value was -8% and the Z score is on record as 1.33.

Turning to `O=C(Cc1cccc(F)c1)N1CCOCC12CCCCC2`, the “% Inhibition” value stood at 2% and the Z score is on record as -0.37.

With `O=C(CCc1ccc(O)cc1)N1C[C@H]2CC[C@@H](C1)N(Cc1ccccc1)C2=O`, the “% Inhibition” value is 1% and the Z score was -0.17.

For `CCOC(=O)N1CCN(C(=O)Cn2cccc(OC)c2=O)CC1`, the “% Inhibition” value was -14% and the Z score amounted to 2.19.

In the case of `N#Cc1ccc(OCCNC(=O)N[C@H]2CCCC23CCOCC3)cc1`, the “% Inhibition” value is given as -17% and the Z score is given as 1.73.

With `COc1ccc(CCNC(N)=NCC2CC2)cc1`, the “% Inhibition” value is -14% and the Z score is listed as 1.61.

Consider `CN(C)c1ccc(C2C(S(=O)(=O)N(C)C3CCCCC3)CON2C)cc1` (centres undefined), for which the “% Inhibition” value is recorded as -5% and the Z score was 0.45.

Take `CN(C)Cc1csc(CN2CCc3[nH]nc(CO)c3C2)c1`: the “% Inhibition” value is reported as -10% and the Z score worked out at 1.96.

As to `O=S(=O)(c1ccc(Oc2ccc(Br)cc2Br)nc1)N1CCCCC1`, the “% Inhibition” value was -8% and the Z score came out at 1.09.

With `CC(C)C(=O)NCC(=O)N1CCC[C@@]2(CCC(=O)N(Cc3ccccn3)C2)C1`, the “% Inhibition” value was 2% and the Z score was -0.3.

Turning to `CCCCC(C)C(=O)N1CC(O)CC1CO` (centres undefined), the “% Inhibition” value is given as 12% and the Z score is -1.33.

Take `COc1ccccc1C(=O)N(Cc1cccs1)c1ccc(C)c(Cl)c1`: the “% Inhibition” value came out at 36% and the Z score is -4.8.

Take `O=C(Nc1ccccc1Br)N1CCN(c2nc3cc(F)ccc3n3cccc23)CC1`: the “% Inhibition” value is reported as 0% and the Z score was -0.01.

Consider `COc1ccc2c(c1)CCN(Cc1cc(O)n3nc(C)nc3n1)C2`, for which the “% Inhibition” value was -9% and the Z score turned out to be 1.65.

For `CC1COC(c2cccc(Cl)c2)CN1C(=O)c1ccc(=O)n(C)n1` (centres undefined), the “% Inhibition” value is on record as -7% and the Z score was 0.63.

Turning to `N#CCNC(=O)CCOc1ccccc1Cl`, the “% Inhibition” value worked out at 33% and the Z score is on record as -2.99.

As to `Cc1nccc(NC(=O)CCC(F)(F)F)c1Cl`, the “% Inhibition” value was -1% and the Z score amounted to 0.05.

On to `O=C(O)c1ccc(C(=O)N(CC2CC2)c2ccccc2)s1`, for which the “% Inhibition” value is given as -1% and the Z score was 0.21.

As for `CCCOc1cccc(-c2cn(Cc3cc(C)on3)nn2)c1`, the “% Inhibition” value turned out to be 16% and the Z score is given as -2.03.

For `CC(C)[C@@H](O)CNC(=O)c1cc(Br)cnc1C1CC1`, the “% Inhibition” value was -10% and the Z score worked out at 1.65.

For `O=C1COc2ccc(S(=O)(=O)N[C@H]3CCOC3=O)cc2N1`, the “% Inhibition” value was -20% and the Z score came to 1.75.

On to `CC[C@](C)(NC(=O)Cc1ccc2c(c1)NC(=O)C2)c1nc(C)cs1`, for which the “% Inhibition” value came to 17% and the Z score was -2.16.

On to `O=C(NC1(CN2CCCC2)CCCCC1)[C@H]1CCOC1`, for which the “% Inhibition” value is reported as 18% and the Z score is listed as -2.35.
